From the supplement of paper PMC4604168 (melanoma cell lines)
Some of the results follow. Repeats are few or missing, and single values can be far off.

How the values were obtained:
Assay in all cases: cell count relative to DMSO control; melanoma cells; higher = more viable cells
Details in all cases: library dose: standard library concentration; 72 h
[1] = tested on: SkMel28
[2] = tested on: SkMel2
[3] = tested on: SkMel30
[4] = tested on: SkMel5
[5] = tested on: UACC257
[6] = tested on: UACC62
[7] = tested on: WM115
[8] = tested on: WM1716
[9] = tested on: WM1745
[10] = tested on: WM3526
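Also: cells treated in 1,536-well plates, then fixed and DAPI-stained, with nuclei counted from automated high-throughput microscope images.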

SMILES | cell count [1] | cell count [2] | cell count [3] | cell count [4] | cell count [5] | cell count [6] | cell count [7] | cell count [8] | cell count [9] | cell count [10]
NC(=O)Nc1cc(-c2cccc(F)c2)sc1C(=O)N[C@H]1CCCNC1 + Cc1cc([N+](=O)[O-])ccc1NS(=O)(=O)c1cc(Cl)ccc1Cl [FH535] (first compound 0.1 µM, partner dose 5 µM) | 39.6% | 88.7% | 82% | 84.4% | 64.9% | 93% | 63.1% | 75.7% | 67.7% | 58.4%
C=CCn1c(=O)c2cnc(Nc3ccc(N4CCN(C)CC4)cc3)nc2n1-c1cccc(C(C)(C)O)n1 + NCC(=O)Nc1ccc(-n2nc(C(F)(F)F)cc2-c2ccc3c(ccc4ccccc43)c2)cc1 [OSU03012] (first compound 0.1 µM, partner dose 5 µM) | 14.4% | 27.1% | 35.9% | 36.6% | 74.2% | 50.8% | 74.5% | 82.5% | 43.9% | 43.9%
CO[C@@H]1[C@H](N(C)C(=O)c2ccccc2)C[C@H]2O[C@]1(C)n1c3ccccc3c3c4c(c5c6ccccc6n2c5c31)C(=O)NC4 [Midostaurin] + COc1ccc(-c2ccc3c(N4CCOCC4)nc(N4C[C@@H](C)O[C@@H](C)C4)nc3n2)cc1CO [KU0063794] (first compound 0.4 µM, partner dose 0.1 µM) | 48.3% | 37% | 61.5% | 50.9% | 60.3% | 64.3% | 41.4% | 44.1% | 30.2% | 66.8%
NCC(=O)Nc1ccc(-n2nc(C(F)(F)F)cc2-c2ccc3c(ccc4ccccc43)c2)cc1 + CC(C)CCN1c2nc(Nc3cc(F)c(O)c(F)c3)ncc2N(C)C(=O)C1C [BID1870] (first compound 5 µM, partner dose 1 µM) | 39.4% | 65.4% | 22.7% | 58.1% | 68.2% | 93.5% | 124% | 70.6% | 86.5% | 56.6%
NC(=O)Nc1cc(-c2cccc(F)c2)sc1C(=O)N[C@H]1CCCNC1 + Cn1cncc1[C@@](N)(c1ccc(Cl)cc1)c1ccc2c(c1)c(-c1cccc(Cl)c1)cc(=O)n2C [tipifarnib] (first compound 0.1 µM, partner dose 0.05 µM) | 29.6% | 71.1% | 73.1% | 65.8% | 105% | 68% | 73.1% | 63% | 76.1% | 52.1%
Cc1nc(Nc2ncc(C(=O)Nc3c(C)cccc3Cl)s2)cc(N2CCN(CCO)CC2)n1 [dasatanib] + CC1(C)NC(=O)N(c2ccc([N+](=O)[O-])c(C(F)(F)F)c2)C1=O [nilutamide] (first compound 0.02 µM, partner dose 5 µM) | 60.7% | 88.5% | 94.2% | 63.5% | 85.5% | 68.4% | 61.1% | 67.2% | 55% | 85.9%
OCCn1cc(-c2cnc3nnn(Cc4ccc5ncccc5c4)c3n2)cn1 + Oc1nc(-c2ccc(C(F)(F)F)cc2)nc2c1CSCC2 [XAV939] (first compound 5 µM, partner dose 10 µM) | 92.4% | 95.8% | 87% | 80.7% | 87% | 76.9% | 78.7% | 71.2% | 78.6% | 102%
Cc1nc(Nc2ncc(C(=O)Nc3c(C)cccc3Cl)s2)cc(N2CCN(CCO)CC2)n1 [dasatanib] + Nc1cccc2c1CN(C1CCC(=O)NC1=O)C2=O [lenalidomide] (first compound 0.02 µM, partner dose 5 µM) | 54.4% | 82.2% | 126% | 65.4% | 74% | 63.5% | 56.9% | 62.5% | 33.5% | 83.7%
C=CCn1c(=O)c2cnc(Nc3ccc(N4CCN(C)CC4)cc3)nc2n1-c1cccc(C(C)(C)O)n1 + Cc1cc(N2CCOCC2)cc2[nH]c(-c3c(NC[C@@H](O)c4cccc(Cl)c4)cc[nH]c3=O)nc12 [BMS536924] (first compound 0.1 µM, partner dose 1 µM) | 30.3% | 64.7% | 64% | 33.5% | 89.6% | 60.1% | 62.7% | 88.1% | 20.8% | 57.8%
Cc1nc(Nc2ncc(C(=O)Nc3c(C)cccc3Cl)s2)cc(N2CCN(CCO)CC2)n1 [dasatanib] + NCC(=O)Nc1ccc(-n2nc(C(F)(F)F)cc2-c2ccc3c(ccc4ccccc43)c2)cc1 [OSU03012] (first compound 0.02 µM, partner dose 5 µM) | 24.2% | 15.5% | 45.7% | 53.3% | 81.7% | 68.3% | 63.4% | 58.8% | 32.7% | 48.4%
NC(=O)Nc1cc(-c2cccc(F)c2)sc1C(=O)N[C@H]1CCCNC1 + C[C@@H]1CCN(C(=O)CC#N)C[C@@H]1N(C)c1ncnc2[nH]ccc12 [CP690550] (first compound 0.1 µM, partner dose 5 µM) | 39.3% | 92.5% | 110% | 101% | 103% | 85.3% | 89.7% | 80.2% | 85.8% | 71%
